According to PubChem BioAssay AID1345082 (National Center for Advancing Translational Sciences (NCATS), 2018):
Out of some 94,000 compounds screened, about 4,000 (4.3%) were called active. This list was built around the results that the source calls inconclusive (neither active nor inactive); the mix of calls is not that of the screen. The call rests on the fitted dose curve; in most records, active means well fitted inhibition curve with a large enough effect; inconclusive means small, poorly fitted or top-dose-only effect; inactive means no such curve, though single readings can be large or run the other way. Where the call is inconclusive, the potency comes from a doubtful curve fit.

Assay: Cytotoxic Profiling in NIH 3T3 Cell Line of Diverse Libraries Using Quantitative High-Throughput Screening; further: nearly all actives have a fitted effect of over 55% in size
Details: NIH 3T3 viability, CellTiter-Glo ATP luminescence, 48-72 h; activity change, negative = cytotoxicity: at 96.7 µM (top of the series) unless noted; series mostly up to 96.7 µM
In short: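 Mouse fibroblast NIH 3T3 cells, 400 per well, received compound via pintool and were incubated for 48 or 72 hr prior to CellTiter-Glo ATP luminescence measurement.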
On the % scale 0 is the no-effect control and ±100 the full control effect; potency means the concentration at half of the fitted maximal effect; tags describe the fitted curve by direction and shape.

| SMILES | Potency | activity change, negative = cytotoxicity | outcome |
| --- | --- | --- | --- |
| NS(=O)(=O)c1ccc(F)c(C(=O)NCc2ccc3nonc3c2)c1 | inconclusive: 50.1 µM [inhibitor, partial curve, poor fit] | – | – |
| O=C(C1CCCC1)N1C[C@@H](CO)[C@@H]2Oc3c(F)cccc3[C@@H]21 | inconclusive: 63.1 µM [inhibitor, partial curve, poor fit] | – | – |
| COCC(=O)Nc1nc2c(s1)C[C@@H]1[C@](C)(CO)[C@H](O)CC[C@@]1(C)[C@@H]2CC(=O)NCCN1CCOCC1 | – | inactive: -5.42% | – |
| CCn1cc(S(=O)(=O)N2C[C@@H](COC)[C@H](c3ccncc3)C2)cn1 | – | inactive: -13.3% | – |
| COCCn1c2c(c(=O)n1-c1ccccc1)CCN(Cc1cccc(C#N)c1)C2 | active: 100 µM | – | – |
| COc1ccc(C)cc1NC(=O)N1CCC(OC2CCN(S(C)(=O)=O)CC2)CC1 | – | inactive: -14.6% | – |
| CN(C)c1ccc2nnc(-c3cc(C(=O)N(C)c4ccccc4)ccn3)n2n1 | inconclusive: 17.8 µM [inhibitor, partial curve, poor fit] | – | – |
| COc1ccc(-c2nc(CN3CCN(CCO)CC3)c(C)o2)c2ccccc12 | inconclusive: 50.1 µM [inhibitor, partial curve, poor fit] | – | – |
| O=C(c1cc(-c2ccc(Cl)cc2Cl)c2nncn2n1)N1CCCCC1 | inconclusive: 100 µM [inhibitor, partial curve, poor fit] | – | – |
| COc1ccc(OC)c(CN2CCNc3cnc(-c4ccccc4)cc3C2)c1 | active: 89.1 µM | – | – |
| Cc1ccc(S(=O)(=O)N2CCc3nc4cc[nH]n4c(=O)c3C2)cc1C | – | – | inactive |
| O=C(c1cccc2[nH]ccc12)N1CCC2(CC1)N=C(c1ccc(Cl)cc1)NO2 | inconclusive: 50.1 µM [inhibitor, partial curve, poor fit] | – | – |
| O=C(Cc1ccccc1)N1CCC2(Cc3ccccc3NC2=O)C1 (centres undefined) | – | inactive: -24.3% [at 138 µM] | – |
| N#Cc1cc2n(n1)CCCN(C(=O)CC(c1ccccc1)c1ccco1)C2 (centres undefined) | inconclusive: 79.4 µM [inhibitor, partial curve, poor fit] | – | – |
| c1ccc(Nc2cc3c(cn2)CN(Cc2c[nH]c4ccccc24)CCN3)cc1 | active: 25.1 µM | – | – |
| O=C(Cc1ccccc1)N1CCC2(CC1)CC(CCOCc1ccccc1)CCO2 (centres undefined) | inconclusive: 50.1 µM [inhibitor, partial curve, poor fit] | – | – |
| CCCCn1c(=O)c(C(=O)N2CCN(C(=O)C(C)(C)C)CC2)nc2cccnc21 | – | inactive: -21.9% | – |
| COCCN1CCC2(CCC1=O)CCN(C(=O)Nc1ccc(Br)cc1)CC2 | inconclusive: 70.8 µM [inhibitor, partial curve, poor fit] | – | – |
| O=C(NCCc1ccc(Cl)cc1)c1nc2cccnc2n(CCc2ccccc2)c1=O | inconclusive: 70.8 µM [inhibitor, partial curve, poor fit] | – | – |
| COc1ccc(C)cc1-c1cn(C)c(=O)n2cc(COc3ccc(Cl)cc3)nc12 | inconclusive: 44.7 µM [inhibitor, full curve] | – | – |
| COc1cccc(-c2ccnc3nc(Cc4ccc(F)cc4)nn23)c1 | inconclusive: 35.5 µM [inhibitor, partial curve] | – | – |
| COc1ccc(F)cc1-c1ccc(CN2CCCCC2C(=O)NC2CCC2)cc1 (centres undefined) | inconclusive: 50.1 µM [inhibitor, partial curve, poor fit] | – | – |

| SMILES | Potency | activity change, negative = cytotoxicity | outcome |
| --- | --- | --- | --- |
| O=C(C1CCN(Cc2ccccc2-c2ccccc2F)CC1)N1CCOCC1 | – | inactive: -21.7% | – |
| O=C1[C@@H]2C[C@@H](CN2Cc2cnc3ccccc3c2)Oc2ccccc2N1Cc1ccccc1 | inconclusive: 44.7 µM [inhibitor, partial curve, poor fit] | – | – |
| Cc1nn(-c2ccccc2)c2c1C(C(C)C)N(C1CCCN(C(=O)NC3CCCC3)C1)C2=O (centres undefined) | inconclusive: 44.7 µM [inhibitor, partial curve, poor fit] | – | – |
| CC1(C)CC(NC(=O)C2CCN(c3nc(-c4ccccc4)nc4c3CCC4)CC2)CCO1 (centres undefined) | inconclusive: 22.4 µM [inhibitor, partial curve, poor fit] | – | – |
| O=C(NCc1ccc2c(c1)OCO2)C1COC2(CCCCC2)N1C(=O)c1cccc(F)c1 (centres undefined) | inconclusive: 50.1 µM [inhibitor, partial curve, poor fit] | – | – |
| CCCCN(Cc1ccc(S(=O)(=O)NC)cc1)Cc1ccco1 | inconclusive: 79.4 µM [inhibitor, partial curve, poor fit] | – | – |
| Cc1ccc2nc([C@H]3CCN(C(=O)C4CC4)C3)[nH]c2c1 | – | inactive: -26.9% [at 174 µM] | – |
| Cc1ccc(Nc2ccnc(N3CCCC(C(=O)NCc4cccs4)C3)n2)cc1 (centres undefined) | active: 17.8 µM | – | – |
| CCn1cc(CN2CCCC23CCN(c2cc(C)nc4ccccc24)CC3)cn1 | inconclusive: 50.1 µM [inhibitor, partial curve, poor fit] | – | – |
| O=C(Cn1nc2c(cc1=O)CCCC2)N1CCN(Cc2ccccc2Cl)CC1 | active: 28.2 µM | – | – |
| Cc1noc(C)c1-c1cc2cc(CN(C)C)oc2c(Nc2ccncn2)n1 | active: 44.7 µM | – | – |
| O=C(c1ccc(F)cc1Cl)N1CCC(Cc2nc(-c3ccccc3)no2)CC1 | inconclusive: 28.2 µM [inhibitor, partial curve, poor fit] | – | – |
| COc1ccc(S(=O)(=O)N2CC[C@H](n3c(=O)n(C)c4cccnc43)C2)cc1 | inconclusive: 39.8 µM [inhibitor, partial curve, poor fit] | – | – |
| O=C(Nc1cc(-c2ccncc2)nn1-c1ccccc1)c1ccc(Cl)cc1 | inconclusive: 44.7 µM [inhibitor, partial curve, poor fit] | – | – |
| COc1ccccc1-c1[nH]nc2ncc(-c3cccc(O)c3)nc12 | inconclusive: 56.2 µM [inhibitor, partial curve, poor fit] | – | – |
| O=C(c1ccc(Cl)nc1)N1CCCC(C(=O)N2CCC(N3CCCC3=O)CC2)C1 (centres undefined) | – | inactive: -5.84% | – |
| COc1ccc(NC(=O)c2cn3cc(-c4cccc(OC)c4)sc3n2)cc1 | inconclusive: 50.1 µM [inhibitor, partial curve, poor fit] | – | – |
| O=C(Cc1cccc(Cl)c1)NCc1ccnc2[nH]ccc12 | inconclusive: 79.4 µM [inhibitor, partial curve, poor fit] | – | – |
| COCC(C)Nc1nccc(C2(c3ccccc3Cl)CCNCC2)n1 (centres undefined) | – | inactive: -2.1% | – |
| COc1ccccc1-c1nc2cnccn2c1NCCC(=O)N1CCc2ccccc21 | inconclusive: 39.8 µM [inhibitor, partial curve] | – | – |
| Cn1cccc1CN1CCC2(CC1)CC(=O)N(c1ccccc1)c1ccccc1O2 | active: 39.8 µM | – | – |
| COCCn1cnc2ccc(-c3ccc(F)cc3OC)nc2c1=O | inconclusive: 56.2 µM [inhibitor, partial curve, poor fit] | – | – |

| SMILES | Potency | activity change, negative = cytotoxicity | outcome |
| --- | --- | --- | --- |
| O=C(c1ccc2nc(-c3ccccc3)cn2c1)N1CCOC(C(F)(F)F)C1 (centres undefined) | – | inactive: -17.5% | – |
| COc1ccc(CCN2C(=O)O[C@@H]3CN(c4nc(OC)cc(OC)n4)C[C@@H]32)cc1 | inconclusive: 10 µM [inhibitor, full curve, poor fit] | – | – |
| COc1ccc(-c2nc3c(c(=O)[nH]2)CCN(C(=O)Nc2ccccc2Cl)C3)cc1 | inconclusive: 39.8 µM [inhibitor, partial curve] | – | – |
| CCc1ccccc1NC(=O)Cn1c(N2CCC(C)CC2)nc(C)cc1=O | inconclusive: 50.1 µM [inhibitor, partial curve, poor fit] | – | – |
| CSc1ccc(-c2cccc(C(=O)NCCNC(=O)NC(C)C)c2)cc1 | inconclusive: 44.7 µM [inhibitor, partial curve, poor fit] | – | – |
| O=C(c1ccccc1F)N1CCC2(C1)C(=O)N(c1ccccc1)c1ccccc12 (centres undefined) | inconclusive: 7.08 µM [inhibitor, full curve, poor fit] | – | – |
| CCCNC(=O)N1CCCC(c2nc(CCOc3ccc(F)cc3)no2)C1 (centres undefined) | inconclusive: 44.7 µM [inhibitor, partial curve, poor fit] | – | – |
| COc1ccccc1-c1cccc(CN2CCC(NC(=O)Cc3cccc(Cl)c3)CC2)c1 | active: 25.1 µM | – | – |
| O=C(NCc1cccnc1Oc1ccccc1F)c1cnc2ccccn12 | inconclusive: 79.4 µM [inhibitor, partial curve, poor fit] | – | – |
| O=C1N(Cc2cccc(F)c2F)CCCC12CCN(c1nc3ccccc3o1)C2 (centres undefined) | inconclusive: 39.8 µM [inhibitor, partial curve] | – | – |
| CS(=O)(=O)c1ccc(CNC[C@H]2COCc3nc4cc(F)ccc4n32)cc1 | inconclusive: 89.1 µM [inhibitor, partial curve, poor fit] | – | – |
| O=C(C1CCCN(Cc2cccc(-c3ccsc3)c2)C1)N1CCC(Cc2ccccc2)CC1 (centres undefined) | inconclusive: 44.7 µM [inhibitor, partial curve, poor fit] | – | – |
| COc1ccc(NC(=O)N2CCCC(Cn3cnc4cccnc43)C2)cc1Cl (centres undefined) | – | inactive: -12.4% | – |
| CCOC(=O)[C@@H]1CN(C(=O)CCc2ccccc2)[C@H]2c3ccccc3O[C@@H]12 | inconclusive: 50.1 µM [inhibitor, partial curve, poor fit] | – | – |
| COc1ccc(-c2ccc(C(=O)N3CCC(NC(=O)NC4CCCC4)CC3)cc2)nn1 | – | inactive: -14.3% | – |
| Cc1cccc(CC(=O)NCCC2CCN(C(=O)Nc3ccccc3)CC2)c1 | – | inactive: -15.7% | – |
| O=C(NCCOc1ccccc1)c1cnc2n1CCN(Cc1cccs1)CC2 | inconclusive: 89.1 µM [inhibitor, partial curve] | – | – |
| O=C(c1coc(COc2cccc(F)c2)n1)N1CCCCC1c1nccs1 (centres undefined) | – | inactive: -27% | – |
| Cc1cc2nc3n(c(=O)c2n1CC(=O)Nc1cccc(C(F)(F)F)c1)CCC3 | inconclusive: 50.1 µM [inhibitor, single point] | – | – |
| CC1(c2noc(-c3ccccn3)n2)CCN(C(=O)CCc2nc3ccc(Cl)cc3[nH]2)CC1 | inconclusive: 70.8 µM [inhibitor, single point] | – | – |
